Assay results published in PubChem BioAssay AID588342 (National Center for Advancing Translational Sciences (NCATS), 2011).
Where “and” joins values, the source holds several entries; their conditions need not be identical. Equal values may be shown once. In all, about 360,000 compounds went through this assay and about 25,000 (6.9%) were called active. The inconclusive results got no clear call from the source; some entries with a clear call stand among them for comparison. Calls follow the shape of the dose curve; as a rule, active = well fitted inhibition curve with a large enough effect; inconclusive = small, poorly fitted or top-dose-only effect; inactive = flat fitted curve, though single readings scatter. A potency beside an inconclusive call is a rough fit, not a confirmed value.

biological target: Luciferin 4-monooxygenase (Photinus pyralis) (UniProt P08659); assay: qHTS profiling assay for firefly luciferase inhibitor/activator using purifed enzyme and Km concentrations of substrates (counterscreen for miR-21 project); settings: purified FLuc, luminescence inhibition; series mostly up to 57.5 µM; also: nearly all actives have a fitted effect of over 55% in size
Chain of UniProt P08659 (P08659 whole entry, looked up): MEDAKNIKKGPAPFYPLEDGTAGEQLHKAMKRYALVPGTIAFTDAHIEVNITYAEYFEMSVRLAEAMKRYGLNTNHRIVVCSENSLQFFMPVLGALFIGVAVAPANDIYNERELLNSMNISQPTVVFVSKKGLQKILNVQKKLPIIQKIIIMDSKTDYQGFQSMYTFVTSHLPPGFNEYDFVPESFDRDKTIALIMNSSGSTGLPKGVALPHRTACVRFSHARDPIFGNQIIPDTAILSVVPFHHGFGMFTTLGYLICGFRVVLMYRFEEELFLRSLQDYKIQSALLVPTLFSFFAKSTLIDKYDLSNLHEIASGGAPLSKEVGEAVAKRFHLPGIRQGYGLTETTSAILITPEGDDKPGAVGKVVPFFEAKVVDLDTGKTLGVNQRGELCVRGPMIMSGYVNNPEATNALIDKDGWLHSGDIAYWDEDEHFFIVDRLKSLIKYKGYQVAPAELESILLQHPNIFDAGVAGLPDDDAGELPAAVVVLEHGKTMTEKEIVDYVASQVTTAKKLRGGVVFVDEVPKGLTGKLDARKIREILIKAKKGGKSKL
Summary of the method: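 Purified P. pyralis luciferase (10nM final) with 10uM D-luciferin and 10uM ATP (Km levels) in 50mM Tris acetate pH 7.5, 10mM Mg acetate, 0.01% Tween-20, 0.05% BSA; qHTS 6-point titration, ~60 µM downward; luminescence read.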
Potency is read from the fitted curve at half-maximal effect; tags tell the direction and shape of the fitted curve.

Compound | Potency
CC1CC(C)CN(C(=O)C(Cc2ccccc2)NC(=O)c2ccccc2)C1 (configuration not stated) | inactive
Cc1ccc(-n2ncc3c2CCCC3NC(=O)c2ocnc2C)cc1C (configuration not stated) | inactive
CCOC(=O)C1=C(C)NC(=O)NC1c1cn(-c2ccccc2)nc1-c1ccc(OC(C)C)cc1 (configuration not stated) | inconclusive: 37.9 µM [inhibitor, partial curve, poor fit]
Cc1cc(C)n2nc(SC(C)C(=O)Nc3ccc(Cl)cn3)nc2n1 (configuration not stated) | inactive
COc1ccc(C2CC(c3cccs3)=NN2C(=O)CSc2nnnn2C)cc1OC (configuration not stated) | inactive
COCCOC(=O)CSc1ncccc1-c1nc2cc(C)c(C)cc2[nH]1 | active: 2.13 µM
CCOC(=O)c1sc(NC(=O)Cc2ccc(F)cc2)nc1C | inconclusive: 37.9 µM [inhibitor, partial curve, poor fit]
O=C(COc1ccccc1Cl)Nc1ccc(N2CCCC2)cc1 | inconclusive: 6.75 µM [inhibitor, partial curve, poor fit]
COC(=O)c1ccc(CSc2nc(-c3ccccc3)cs2)o1 | active: 8.49 µM
CCc1nc2ccccc2c(C(=O)Oc2cccc3cccnc23)c1C | active: 15.1 µM
COc1c(/C=N/NC(=O)c2ccccc2O)c(CCN(C)C(C)=O)cc2c1OCO2 | active: 19 µM
Cc1cc(OCCCn2c(CCNC(=O)C3CCCCC3)nc3ccccc32)ccc1Cl | inconclusive: 26.9 µM [inhibitor, partial curve, poor fit]
Cc1cc(N2CCOCC2)nc2ccc(NC(=O)CCC(=O)N3CCCCC3)cc12 | inconclusive: 21.3 µM [inhibitor, single point]
COc1cc(/C=C/c2nc(-c3ccccc3O)n[nH]2)cc(OC)c1OC | inconclusive: 21.3 µM [inhibitor, single point]
C/C(Cn1cnc([N+](=O)[O-])n1)=N\NC(=O)c1cccc(F)c1 | inconclusive: 37.9 µM [inhibitor, partial curve, poor fit]
COCc1cc(=O)n2[nH]c(-c3cccc(Br)c3)cc2n1 | inconclusive: 21.3 µM [inhibitor, single point]
COC(=O)c1c(NC(=O)c2ccccc2)sc2c1CC(C)(C)OC2 | inconclusive: 26.9 µM [inhibitor, single point]
Cc1ccc(C(=O)N/C(=C\c2ccc(-c3ccccc3[N+](=O)[O-])o2)C(=O)NCCN(C)C)cc1 | inconclusive: 10.7 µM [inhibitor, partial curve, poor fit]
CC(C)C(=O)Nc1ccc2oc(-c3cc(F)c(F)cc3Cl)nc2c1 | inconclusive: 6.75 µM [inhibitor, full curve]
C/C(CC(=O)Nc1cc(C)ccn1)=N\NC(=O)c1cccc(C)c1O | inconclusive: 26.9 µM [inhibitor, single point]
O=C(CCNC(=O)c1ccc(Br)cc1)NCC1COc2ccccc2O1 (configuration not stated) | inconclusive: 26.9 µM [inhibitor, single point]
Cc1cccc(NC(=O)c2sc3nc(-c4ccccc4)cn3c2C)c1C | inactive
CCC(=O)Nc1nc(-c2ccccc2)ns1 | active: 15.1 µM
CNC(=O)c1cc2c(s1)-c1ccccc1CC2 | active: 19 µM

Compound | Potency
COc1ccc(C2CC(C(F)(F)F)n3nc(C(=O)NCc4cn(C)nc4C)c(Cl)c3N2)cc1 (configuration not stated) | inactive
C#CCOc1ccc(/C=C2/C(=O)ON=C2C)cc1OCC | inconclusive: 30.1 µM [inhibitor, partial curve, poor fit]
CCc1ccc(NC(=O)C(NS(=O)(=O)c2cccc3nsnc23)c2ccccc2)cc1 (configuration not stated) | inconclusive: 37.9 µM [inhibitor, single point] and inconclusive: 23.9 µM [inhibitor, partial curve, poor fit]
COc1ccc(NC(=O)OCC(C)C)cc1OC | inconclusive: 23.9 µM [inhibitor, partial curve, poor fit]
COC(=O)c1ccccc1NC(=O)c1ccc2c(c1)OCCO2 | inconclusive: 23.9 µM [inhibitor, single point]
CCCn1c(N)c(C(=O)CSc2ncnc3sccc23)c(=O)n(C)c1=O | inconclusive: 5.36 µM [inhibitor, partial curve, poor fit]
CSc1cccc(NC(=O)OC2CCCCCCCCCCC2)c1 | inconclusive: 30.1 µM [inhibitor, partial curve, poor fit]
Cc1ccc(C(=O)OCC(=O)c2c[nH]c3ccccc23)cc1NC(=O)c1ccco1 | inconclusive: 30.1 µM [inhibitor, single point]
CC(CNC(=O)c1cc(-c2ccccc2)n[nH]1)c1ccccc1 (configuration not stated) | inconclusive: 30.1 µM [inhibitor, partial curve]
CN(C)c1nc(-c2ccccc2)ns1 | inconclusive: 21.3 µM [inhibitor, partial curve]
C/C(=N/NC(=O)c1sc(NS(=O)(=O)c2ccccc2)nc1C)c1ccccc1 | inconclusive: 30.1 µM [inhibitor, partial curve, poor fit]
CC1CN(C(=O)COC(=O)CSc2ccc([N+](=O)[O-])cc2)CC(C)O1 (configuration not stated) | inactive
CCN(CC(=O)NC(=O)NC1CCCC1)Cc1ccccc1 | inactive
CCn1cnc2cc(NCc3cccc(OC)c3O)ccc21 | active: 12 µM
O=C(O)CC/C(=C\c1cccc(NC(=O)c2ccccc2Cl)c1)c1nc2ccccc2s1 | inconclusive: 21.3 µM [inhibitor, partial curve]
Cc1ccc(C)c(S(=O)(=O)c2nnn3c2nc(Nc2ccc(C)c(C)c2)c2ccccc23)c1 | inactive
CCOc1ncccc1C(=O)OCC(=O)c1cc(C)n(Cc2ccco2)c1C | active: 0.849 µM
O=C(c1ccc(CS(=O)(=O)c2ccc(Br)cc2)o1)N1CCN(C2CCCCC2)CC1 | inactive
Clc1ccccc1N/N=C/c1ccc2c(c1)OCO2 | active: 10.7 µM
CCOC(=O)c1sc(NNC(=O)c2ccc(C)cc2)nc1C | inconclusive: 30.1 µM [inhibitor, partial curve, poor fit]
COc1ccc2nc(Nc3nc4cc5c(cc4s3)OCCO5)sc2c1 | active: 9.53 µM
CC(=O)Nc1ccc(NC(=O)COC(=O)C2c3ccccc3Oc3ccccc32)cc1 | inconclusive: 26.9 µM [inhibitor, partial curve, poor fit]
COc1cc(C=C2C(=O)OC(c3ccccc3)OC2=O)cc(Br)c1O (configuration not stated) | inconclusive: 16.9 µM [inhibitor, partial curve]
Cc1ccc2nc(-c3ccccc3)cc(C(=O)N3CCN(S(=O)(=O)c4c(C)noc4C)CC3)c2c1 | active: 5.36 µM

Compound | Potency
Cc1cc(NCCOCCO)n2ncc(-c3ccc(Cl)cc3)c2n1 | active: 1.35 µM
Cc1ccc(NC(=O)Cn2cc(S(=O)(=O)N3CCCC3)c(S(=O)(=O)N3CCCC3)c2)cc1F | inactive
COC(=O)c1sc(C(C)(C)C)cc1CS(=O)(=O)c1ccccn1 | inactive
CCN1c2ccccc2-c2nc(SCC(=O)NCc3ccccc3)ncc2S1(=O)=O | inactive
Cc1ccc(-c2nc(N)nc(N)n2)c(C)c1 | inactive
CCOCCOC(=O)COc1ccc2c(-c3ccccc3)cc(=O)oc2c1 | inconclusive: 30.1 µM [inhibitor, partial curve, poor fit]
Cc1ccccc1OCC(=O)NNC(=O)c1ccc2c(=O)n3c(nc2c1)CCC3 | inactive
COc1cc(NC(=O)c2cc3c(s2)-c2ccccc2OC3)cc(OC)c1OC | inconclusive: 23.9 µM [inhibitor, partial curve, poor fit]
CCCN(CCC)C(=O)Cn1c(=O)n(-c2ccc(Cl)cc2)c(=O)c2c3c(sc21)CCCCC3 | inactive
O=C(COc1ccc(Cl)cc1Cl)Nc1nnc(C2=COCCO2)o1 | inconclusive: 23.9 µM [inhibitor, partial curve]
NC(N)=N/N=C/c1ccc(Cl)cc1Cl | inconclusive: 26.9 µM [inhibitor, partial curve, poor fit]
COc1cccc(/C=N/NC(=O)C(C)n2nc(C)c([N+](=O)[O-])c2C)c1O (configuration not stated) | active: 7.57 µM
CN(C)S(=O)(=O)Oc1cccc(C(=O)Nc2cccc(Cl)c2)c1 | active: 13.5 µM
NC(=O)Cn1cc(C(=O)COc2ccccc2)c2ccccc21 | inconclusive: 23.9 µM [inhibitor, partial curve]
CCn1c(SCC(=O)N2CCN(c3ccccc3)CC2)nnc1-c1c[nH]c2ccccc12 | inactive
Cc1ccc(CN2CCc3nc(Nc4ccc5c(c4)OCCO5)ncc3C2)cc1 | inconclusive: 37.9 µM [inhibitor, partial curve, poor fit]
O=C(COC(=O)c1cnccn1)NCCc1ccc(Cl)cc1 | inactive
O=C(NCC1CCCO1)c1ccc(N2CCCCC2)nc1 (configuration not stated) | inconclusive: 13.5 µM [inhibitor, partial curve]
NNC(=O)c1cc2c(s1)-c1cc(Cl)ccc1SC2 | inconclusive: 8.49 µM [inhibitor, full curve]
O=C(CNC(=O)c1ccco1)OCc1ccc(Cl)cc1 | inconclusive: 21.3 µM [inhibitor, partial curve, poor fit]
O=C(NNC(=O)c1ccc(F)cc1F)c1ccc(-n2cnnn2)cc1 | inactive
NNC(=O)c1nc[nH]c1C(=O)Nc1ccccc1 | inactive
CSS(=O)(=O)c1cccc2cccnc12 | inconclusive: 12 µM [inhibitor, partial curve]
Cc1cccc(N/N=C/c2ccc(O)c(O)c2O)c1 | inconclusive: 30.1 µM [inhibitor, single point]
